{"source": "paper PMC8886574", "about": "“Synthesis, physicochemical characterization and neuroprotective evaluation of novel 1-hydroxypyrazin-2(1H)-one iron chelators in an in vitro cell model of Parkinson's disease” (Dalton Transactions (Cambridge, England : 2003), 2022)"}
{"experiment": "Protonation constants (log K) of ligands by UV-visible spectrophotometric titration vs. pH", "format": "physicochemical", "details": "Solvent MeOH/H2O (80/20 w/w), I = 0.1 M (NaClO4)", "description": "For ligand 10a, protonation constants of the ligand were studied in both media while complexation studies were carried out only in the mixed solvent for solubility reasons."}
{"smiles": "O=c1cncc(-c2ccccc2)n1O", "note": "[Ligand 10a, 1-Hydroxy-6-phenylpyrazin-2(1H)-one]", "log K LH": "4.24(2)"}
{"smiles": "Cc1nc(Cc2ccccc2)c(=O)n(O)c1C", "note": "[Ligand 6c, 1-Hydroxy-3-benzyl-5,6-dimethylpyrazin-2(1H)-one]", "log K LH": "5.53(2)"}
{"smiles": "Cc1nc(Cc2ccc(O)cc2)c(=O)n(O)c1C", "note": "[Ligand 6d, 1-Hydroxy-3-(4-hydroxybenzyl)-5,6-dimethylpyrazin-2(1H)-one]", "log K LH": "10.57(1)"}
